Reference: the supplement of paper PMC11417369
± gives the standard deviation of the averaged measurements. This is one part of the list.

tested on: PfAP2-EXP AP2 domain (GST-tagged); assay: gcPBM binding intensity (ln(normalized median fluorescence intensity)); higher = stronger DNA binding
How it was run: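 The highest Masliner-normalised natural-log median intensity across replicate spots of either probe orientation is reported as binding intensity. GST-tagged P. falciparum DNA-binding domains expressed in E. coli were applied for 1 h to an Agilent 4 × 180k array of primer-extended double-stranded 36-bp intergenic genomic probes plus negative controls, and bound protein was detected with Alexa488 anti-GST antibody and scanned at 488 nm.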

| Sequence | gcPBM binding intensity (ln) |
| --- | --- |
| AAGGTATAATATATTTGTACATATACATTTTTGAAT [XGTACX_site6493] | 8.3 ± 0.26 |
| GATTTTAATGGGTGTACACATTTATTTATATAAAGT [CACACA_site5317] | 8.63 ± 0.25 |
| TGAAAAATGTAATGCTCACACATATATATATATATA [CACACA_site5213] | 10.2 ± 0.32 |
| ACATTTAAATAATATGTGCACAGCTATATTTTCTTT [GTGCAC_site9562] | 8.79 ± 0.3 |
| ATATATATATATATATGTACATATATATATTATATT [XGTACX_site6303] | 10 ± 0.62 |
| TTATGGTGCATGAAATCACACATTGATATATATGCT [CACACA_site5352] | 8.53 ± 0.028 |
| GTGTCTTTTATTAAATGTACATATTCATAGATAAAA [XGTACX_site8578] | 8.63 ± 0.37 |
| TAGAATGAAAAAAAAGCATGCGGGCAAAAATTTTTA [TGCATGCA_site926] | 9.43 ± 0.58 |
| ACCTTAAAAATAACTGCACACAAAAATAAATACCTT [CACACA_site8902] | 9.63 ± 0.54 |
| ACGTAAACATGTAGAAGGCATTACACAATGGTATAC [TGCATGCA_negctrl_site512] | 8.97 ± 0.35 |
| AATTGAGAAGTGTGTTGTACATAATGGCACATACCT [XGTACX_site1370] | 8.73 ± 0.32 |
| TTATTTTTTTGGAATTCACACACAAAAAAAAAAATA [CACACA_site8650] | 8.55 ± 0.42 |
| TATATATATATGTGTACACATGTCGCATTTTTTTAT [CACACA_site4648] | 10 ± 0.26 |
| GATATTATAAAATAAAAATAAATCATTTCTATTCAT [CACACA_negctrl_site334] | 7.99 ± 0.35 |
| TTATGTGTATAGGTTTGTACATAAAATGATGTATAG [XGTACX_site1401] | 8.46 ± 0.38 |
| TAGTCATATATATATGTACACACATATATATATTTA [CACACA_site8413] | 8.39 ± 0.35 |
| TCATGGAATATTTAAAGTACAAAAAGTGTTCTTTAC [XGTACX_site715] | 8.21 ± 0.3 |
| ATATATTATGGGTGTGCACACAATATTTATATGTTC [CACACA_site2270] | 8.93 ± 0.4 |
| TTATAATAAATATATAAAAAAAAAAAAAAAAAAAAA [CACACA_negctrl_site1639] | 7.97 ± 0.23 |
| TGATAGCACCTTATATGTACATATAATATATTATTA [XGTACX_site837] | 8.89 ± 0.23 |
| TTTTCTTATAAATGAAGTACAAAAAAAAAATATATA [XGTACX_site1352] | 8.63 ± 0.46 |
| ACATATATGGAGCTTATACACACTTTTATATTTTAA [CACACA_site3854] | 8.42 ± 0.41 |
| TTATCATATAATTATTGTACTAAAAAAAAAGCGAGT [XGTACX_site3086] | 8.91 ± 0.4 |

| Sequence | gcPBM binding intensity (ln) |
| --- | --- |
| TTTTAAATATGCCATACACACTACTCTATAATAAAT [CACACA_site6987] | 8.46 ± 0.46 |
| TAAAATTTGCGATGCACACAGAATAGCTAATATGAC [CACACA_site2995] | 8.9 ± 0.38 |
| TATTTTCTCGTTTGCATGCACCTTATTTTATGTGGT [GTGCAC_site9470] | 10 ± 0.11 |
| ATATTATATATATACACACACACATGCATGCACATA [CACACA_site7917] | 9.94 ± 0.16 |
| TACTAAAACCCATACACACACATATTTATAGTACCA [CACACA_site7484] | 8.49 ± 0.41 |
| AAATTCTGCATCGAGGTGCGCCATAAAAATTGTGGT | 8.765 ± 0.035 |
| AGTTATTTTAAATGTAGTACACAAAAGAAATATTAA [XGTACX_site4092] | 8.68 ± 0.22 |
| CATAAATTAAAACACACACACACAAAAAAAAAAAAA [CACACA_site2262] | 8.32 ± 0.62 |
| TTTAAAAATATATATTGTACATATATATATCTATGA [XGTACX_site3556] | 8.32 ± 0.4 |
| ATAAAAATTAAAAGGAGTACTTAAATATTAAGATGG [XGTACX_site4815] | 8.67 ± 0.27 |
| TTTATTTAAAAAATAAAAAAAAAAAAAAAAAAAAAA [CACACA_negctrl_site1670] | 7.82 ± 0.38 |
| TACTATTTAAAATTTGAACACACATTATTTATTTTA [CACACA_site9020] | 8.27 ± 0.31 |
| TATACAATATATATAACACACATATTTATATAAAAT [CACACA_site5061] | 8.29 ± 0.38 |
| CAGTTGGAAGGAAAGTGTACATAAAAAAAAATATAA [XGTACX_site8784] | 8.95 ± 0.44 |
| AAAATACCATTTGAAACACACAAAAAAAAAAAAAAT [CACACA_site2981] | 8.36 ± 0.66 |
| AACATAAAAATTGAAGCACACACACTAATGAAATAC [CACACA_site8287] | 9.1 ± 0.35 |
| ACAAATCTATAAGAGTGTACGAACAGTAAAGGAATT [XGTACX_site2070] | 9.12 ± 0.51 |
| ATGTGAACATTCAATGCACACGATGTAATTATACAT [CACACA_site15] | 8.6 ± 0.27 |
| ATAAAAATCTTTAGTAGTACATTATAAAAAACTATT [XGTACX_site5531] | 8.45 ± 0.42 |
| TTTTTAATATATATCACACATATATATTTTTAATTA [CACACA_site6099] | 8.28 ± 0.31 |
| CTAATCGTGCACAACTGTACATTTGTCAAGGGCAAT [XGTACX_site8662] | 9.17 ± 0.23 |
| CGGCTATTTCTATATACATGCATTTAAAAAAAAAAT [TGCATGCA_site354] | 8.56 ± 0.44 |
